Results taken from paper PMC4336329 (PLoS ONE, 2015).
Among all 310,000 compounds or so, about 2,200 (0.71%) showed an effect of 50% or more. The effect is printed as a negative number. This is one part of the list.

The molecules below were run against human ether-à-go-go-related gene (hERG) potassium channel (human, UniProt Q12809) (assay: primary screen, population patch clamp on CHO cells stably expressing hERG).
human ether-à-go-go-related gene (hERG) potassium channel, sequence (Q12809 whole entry, looked up): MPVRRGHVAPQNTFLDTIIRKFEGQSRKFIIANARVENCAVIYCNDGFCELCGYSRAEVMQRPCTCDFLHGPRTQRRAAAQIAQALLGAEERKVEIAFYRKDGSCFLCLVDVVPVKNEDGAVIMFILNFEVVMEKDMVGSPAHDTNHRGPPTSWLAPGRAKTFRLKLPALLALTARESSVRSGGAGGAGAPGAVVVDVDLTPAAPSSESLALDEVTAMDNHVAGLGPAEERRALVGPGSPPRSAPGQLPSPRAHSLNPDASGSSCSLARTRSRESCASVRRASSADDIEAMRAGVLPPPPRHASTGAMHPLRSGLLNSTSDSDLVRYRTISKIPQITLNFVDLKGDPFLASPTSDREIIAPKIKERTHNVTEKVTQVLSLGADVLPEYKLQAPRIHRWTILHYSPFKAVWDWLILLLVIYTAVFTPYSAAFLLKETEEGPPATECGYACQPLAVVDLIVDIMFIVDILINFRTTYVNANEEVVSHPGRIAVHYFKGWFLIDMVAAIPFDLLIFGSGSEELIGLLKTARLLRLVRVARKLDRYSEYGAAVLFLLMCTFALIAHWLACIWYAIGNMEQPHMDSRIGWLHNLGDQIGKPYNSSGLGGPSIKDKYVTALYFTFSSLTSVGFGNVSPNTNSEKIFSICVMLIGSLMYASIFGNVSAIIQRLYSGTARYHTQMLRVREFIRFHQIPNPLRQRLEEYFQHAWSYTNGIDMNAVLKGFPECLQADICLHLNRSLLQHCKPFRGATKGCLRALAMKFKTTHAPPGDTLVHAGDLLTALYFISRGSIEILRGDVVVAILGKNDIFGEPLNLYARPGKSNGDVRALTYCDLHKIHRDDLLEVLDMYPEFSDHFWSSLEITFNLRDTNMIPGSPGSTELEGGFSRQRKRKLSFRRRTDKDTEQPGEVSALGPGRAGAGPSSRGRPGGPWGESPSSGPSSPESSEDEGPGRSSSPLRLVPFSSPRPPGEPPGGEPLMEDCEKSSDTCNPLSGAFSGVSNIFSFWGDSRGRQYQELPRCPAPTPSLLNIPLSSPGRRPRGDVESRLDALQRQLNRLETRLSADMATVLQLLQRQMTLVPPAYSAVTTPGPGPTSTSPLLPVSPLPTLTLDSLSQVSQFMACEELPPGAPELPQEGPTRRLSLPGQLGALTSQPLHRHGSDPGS

Structure (SMILES)	hERG current change (%, negative = inhibition) at 1uM [%]
c1ccc2sc(-c3ccncc3)nc2c1	7.3
O=C1c2ccccc2S(=O)(=O)c2cc(C(=O)N3CCN(c4ccccc4)CC3)ccc21	-8.29
COc1ccccc1Nc1cc(C(=O)NCCCN2CCOCC2)c2ccccc2n1	-8.86
O=C(CSC(=S)N1CCOCC1)N1N=CCC1c1ccccc1 (centres unmarked)	2.29
CC(C)NC(=O)C1CCCN(S(C)(=O)=O)C1 (centres unmarked)	11
O=C1COc2ccc(S(=O)(=O)CCC(=O)N3CCN(c4cccc(C(F)(F)F)c4)CC3)cc2N1	-3.52
O=[N+]([O-])c1ccc(NCc2ccccc2N2CCC(CO)CC2)nc1	-3.9
COc1cc(NC(=S)NCCCN2CCOCC2)cc(OC)c1	7.99
CCOC(=O)/C(C#N)=C1\CC2CCC1(C)C2(C)C (centres unmarked)	7.45
N#CCn1c(C2CCCCC2)nc2ccccc2c1=O	9.26
Cc1nc2ccc(S(=O)(=O)N(C)CC(=O)Nc3ccccc3F)cc2s1	0.133
COc1ccc2cc1Oc1ccc(cc1)CC1c3c(cc(OC)c4c3Oc3cc5c(cc3O4)CCNC5C2)CCN1C (centres unmarked)	5.98
Cn1c(SCC(=O)NCCc2ccccc2)ncc(C(=O)Nc2ccccc2)c1=O	13.6
O=c1[nH][nH]c(=O)n1-c1ccccc1	2.13
O=C(Nc1ccc(Oc2ccsc2C(=O)O)cc1)c1ccccc1F	13
COc1ccc(N2CCN(S(=O)(=O)c3cccc4nsnc34)CC2)cc1	11.4
COc1cccc(/C=C2\SC(N3CCC(C)CC3)=NC2=O)c1OC	9.62
CC(C)(CO)C(O)C(=O)NCCCO (centres unmarked)	13.3
O=C(NCc1ccc(F)cc1)c1ccc(CS(=O)(=O)c2ccc(Br)cc2)o1	4.83
CCn1c(COc2ccc(Cl)cc2)nnc1SCC(=O)Nc1ccc2c(c1)OCO2	9.66
Nc1c(N2CCCC2)cc(Cl)c2nonc12	-4.6
N#Cc1cc2c(nc1SCC(=O)Nc1nccs1)CCCCC2	3.89

Structure (SMILES)	hERG current change (%, negative = inhibition) at 1uM [%]
CCOC(=O)c1sc(NC(=O)CSc2n[nH]c(-c3ccc(Cl)cc3Cl)n2)c(C#N)c1C	14.5
CCOc1ccc(N(CC(=O)Nc2ccc(C)c(C)c2)S(=O)(=O)c2c(C)noc2C)cc1	2.97
N=c1c(C(=O)NCc2ccc(F)cc2)cc2c(=O)n3ccccc3nc2n1Cc1cccnc1	-80.3
CC1(C)Cc2nc3sc4c(SCC(=O)O)ncnc4c3cc2CO1	11.5
O=C(NCCCN1CCN(CCCNC(=O)c2cccc(Cl)c2)CC1)c1cccc(Cl)c1	-74.5
O=C(c1ccc(NS(=O)(=O)c2ccc(F)cc2)cc1)N1CCOCC1	19.3
CC1CCCC(NC(=O)CSc2nncs2)C1C (centres unmarked)	2.31
N#C/C(=C\c1ccc([N+](=O)[O-])o1)C(=O)Nc1ccc(F)cc1	4.1
CCN(CC(=O)NCc1cccs1)C(=O)CCc1c[nH]c2ccccc12	5.61
CC1CCCCC1NC1CCN(C)CC1 (centres unmarked)	19.6
Cn1c(=O)cc(OCC(=O)Nc2ccccn2)c2ccccc21	16.5
CC(C)n1nc(C(=O)Oc2cc(Cl)ccc2Cl)c2ccccc2c1=O	10.1
O=C(c1ccc2ccccc2c1)N1CCN(c2ccccn2)CC1	8.35
CNC(=S)Nc1ccc([N+](=O)[O-])c(C)c1	4.25
Cl.O=C(Nc1ccc(C(=O)OC[C@@H]2CCCN3CCCC[C@H]23)cc1)c1cccc(Br)c1	-29.2
CCCNC(=O)COC(=O)c1ccc(S(=O)(=O)N2CCCCCC2)cc1	6.01
COC(=O)C1=C(C)NC(=O)NC1c1ccc(OCC(=O)N2CCCCC2)cc1 (centres unmarked)	15
Cc1cc(C)c2c(c1)c(C)cc1nnc(SCC(=O)NCc3ccco3)n12	12.4
CC(=O)OC[C@H]1O[C@@H](O/N=C(\C)CCN2CCCCc3nc(C)c(C)cc32)[C@H](OC(C)=O)[C@@H](OC(C)=O)[C@@H]1OC(C)=O	2.09
CCOC(=O)N1CCC(N2CCN(S(=O)(=O)c3ccc4ccccc4c3)CC2)CC1.O=C(O)C(=O)O	-4.39
CSc1nc(SCCN(C)C)c2c3c(sc2n1)COC(C)(C)C3	-2.79
CCOC(=O)c1c(NC(=S)Nc2cccc(C)c2)sc2c1CC(C)(C)SC2	-1.09

Structure (SMILES)	hERG current change (%, negative = inhibition) at 1uM [%]
CCN(CC)C(=O)c1ccc(NC(=O)c2ccc(-n3cncn3)c([N+](=O)[O-])c2)cc1	4.18
COc1ccc(NC(=O)CN2C(=O)NC3(CCCC3)C2=O)cc1	13
COc1cccc(C(=O)NCC(=O)NCc2cc(=O)n(C)c(=O)n2C)c1OC	11.5
Cc1cc(=O)n2nc(N3CCCC3C(=O)NCCCN3CCCCC3)sc2n1 (centres unmarked)	9.73
O=C(c1cccnc1)N1CCc2ccccc21	-9.04
Cc1cccc(C)c1OCc1cc(C(=O)N2CCC(C3CCCCC3)C2)no1 (centres unmarked)	10.6
COC(=O)c1ccc(/C=N/N2CCN(Cc3ccccc3Cl)CC2)cc1	5.33
COc1cc(/C=C/C(=O)OCC(=O)N2CC3(C)CC2CC(C)(C)C3)ccc1O (centres unmarked)	-8.38
COc1ccc2nc(C)cc(Nc3cccc(C(=O)O)c3)c2c1	17.3
COc1ccc(CN2CCN(C(=O)c3cccc4ccccc34)CC2)cc1OC.O=C(O)C(=O)O	8
COc1ccc(NC(=O)COc2ccc(/C=N/NC(=O)c3cccnc3)cc2OC)cc1	-1.04
Cl.OC(COc1ccccc1)CN1CCN(CC(O)COc2ccccc2)CC1 (centres unmarked)	-19.5
Cc1cccc([C@@H]2[C@@H]3C(=O)N(Cc4ccccc4)C(=O)[C@@H]3[C@]3(Cc4ccccc4)C(=O)N(c4cccc(F)c4)C(=O)N23)c1	9.13
O=C(CN1C(=O)/C(=C\c2ccccc2F)SC1=S)Nc1nc2ccccc2s1	6.88
Cc1ccc(NS(=O)(=O)c2ccc(Br)s2)nc1	14.5
COc1cc(OC)cc(C(=O)NC(=S)NNC(=O)[C@H]2C[C@@H]2c2ccccc2)c1	9.85
O=C(Nc1cccc([N+](=O)[O-])c1)c1ccc(-c2ccccc2)cc1	0.755
Cc1csc2c(N3CCCCC3)ncnc12	11.9
CCn1c(SCc2ccc(C(=O)OC)o2)nc2sc3c(c2c1=O)CCCC3	12.4
Cc1ccc(NC(=O)Cc2c(Cl)cccc2Cl)cc1S(=O)(=O)N(C)C	15.5
Cn1c(CSc2nc3ccc(Br)cc3[nH]2)nc2ccccc21	6.65
CS(=O)(=O)N1CCN(c2ccc([N+](=O)[O-])c(SCc3ccco3)c2)CC1	-0.93

Structure (SMILES)	hERG current change (%, negative = inhibition) at 1uM [%]
CC(C)(C)NC(=O)CN(Cc1ccc2c(c1)OCO2)C(=O)CNS(=O)(=O)c1ccccc1	12.2
CC(C)Oc1ccc(S(=O)(=O)N2CCOCC2)cc1NC(=O)Cc1c(F)cccc1Cl	14.8
CCOc1ccc(N2CC(C(=O)Nc3cccc(S(=O)(=O)N4CCCC4)c3)CC2=O)cc1 (centres unmarked)	-4.63
Oc1ccc(Cl)cc1-c1cc(C(F)(F)C(F)F)nc(-c2ccccc2)n1	12.3
Cc1ccc(N=Nc2c(N)nn3c(N)c(C#N)c(C)nc23)cc1	9.26
COc1ccc(NC(=O)c2ccc3c(=O)n(Cc4ccco4)c(=S)[nH]c3c2)c(OC)c1	9.15
CCc1ccc2c(c1)cc(C)c1nnc(SCC(=O)Nc3cc(OC)c(OC)cc3C(=O)O)n12	7.24
O=C(O)CC1(CC(=O)NCc2ccncc2)CCCCC1	5.68
CCOCCCNCc1cc(Cl)cc(Cl)c1OCC.Cl	-6.59
CCN(CC)C(=O)Nc1ccccc1C	11
COc1ccc(C(=O)COC(=O)Cn2cnc3ccccc3c2=O)c(OC)c1	3.53
COc1ccc(OC)c(C2NC(=O)N(C)C(C)=C2C(=O)OCc2ccccc2)c1 (centres unmarked)	5.6
COCCn1c(C)cc(/C=N/NC(=O)c2cccnc2)c1C	19.1
COc1ccc(CCNC(=O)C2CCC(=O)N(C3CC3)C2)c(OC)c1 (centres unmarked)	6.06
Cc1nc(SCC(=O)NC(=O)NC(C)C)nc(C)c1C	17.5
Cc1c(CN2CC[C@@H](N3CCN(c4ccccn4)CC3)[C@H](O)C2)[nH]c2ccc(F)cc12	6.76
CCOC(=O)Cn1cc(/C=N/NC(=O)CC#N)c2ccccc21	14.2
CCC(=O)Nc1ccc(NC(=O)c2cccc(OC)c2)nc1	7.14
CCc1cc(=O)n2[nH]c(C)c(-c3ccc(OC)cc3)c2n1	8.15
COc1ccccc1-c1nnc(SCC(=O)NC2CCS(=O)(=O)C2)n1N (centres unmarked)	8.12
